# Experimental data reported in the supplement of paper PMC8007513.
# Where a name gives a salt, the structure may show the parent alone. ± gives the standard error. About 75 (6%) of roughly 1,300 compounds showed an effect of 50% or more. The list shows a part of the results.
# Tested on: Trichoderma virens ATCC 9645
# Assay: growth yield (OD600) relative to untreated control; higher = less growth inhibition
# Conditions: compound concentration: 100 uM
# Procedure, shortened: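 Plates were read for OD600 at 40 h and 72 h after Trichoderma virens ATCC 9645 spores (15,000 spores ml^−1 in potato dextrose broth) were grown at 30 °C with library compounds at 100 μM final, with or without a biocide at 200 ng ml^−1. Growth is stated relative to the control with neither agent, as the mean of duplicate screens.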
structure (smiles),measurement,setting,value
CC(=O)NCCCS(=O)(=O)O [Acamprosate calcium],growth yield,40 h,98.32 ± 0.48%
same,growth yield,72 h,95.9 ± 1.7%
CCOC(=O)O[C@]1(C(=O)COC(=O)CC)CC[C@H]2[C@@H]3CCC4=CC(=O)C=C[C@]4(C)[C@H]3[C@@H](O)C[C@@]21C [Prednicarbate],growth yield,40 h,118 ± 3%
same,growth yield,72 h,114 ± 2.8%
CC(C(=O)O)c1ccc2c(c1)[nH]c1ccc(Cl)cc12 (centres undefined) [Carprofen],growth yield,40 h,40.7 ± 15%
same,growth yield,72 h,88.9 ± 8%
CCCCc1cc2ccccc2c(OCCN(C)C)n1 [Dimethisoquin hydrochloride],growth yield,40 h,97.4 ± 4.3%
same,growth yield,72 h,97.3 ± 4.4%
Cc1cccc(C)c1NC(=O)C(C)N (centres undefined) [Tocainide hydrochloride],growth yield,40 h,106 ± 7.2%
same,growth yield,72 h,102 ± 4%
Cc1ccccc1C(=O)Nc1ccc(C(=O)N2CCCC(O)c3cc(Cl)ccc32)c(C)c1 (centres undefined) [Tolvaptan],growth yield,40 h,110 ± 7.6%
same,growth yield,72 h,110 ± 2.1%
CN(C)C(=O)C(CCN1CCC(O)(c2ccc(Cl)cc2)CC1)(c1ccccc1)c1ccccc1 [Loperamide hydrochloride],growth yield,40 h,98.48 ± 0.32%
same,growth yield,72 h,105 ± 1.3%
O=C(OCC(O)CO)c1ccccc1Nc1ccnc2cc(Cl)ccc12 (centres undefined) [Glafenine hydrochloride],growth yield,40 h,97.1 ± 1.4%
same,growth yield,72 h,98.3 ± 1.8%
CC(C(=O)O)c1ccc(-c2ccccc2)c(F)c1 (centres undefined) [Flurbiprofen],growth yield,40 h,72.9 ± 3%
same,growth yield,72 h,86.5 ± 3.9%
C[C@H]1O[C@@H](O[C@H]2[C@@H](O)C[C@H](O[C@H]3[C@@H](O)C[C@H](O[C@H]4CC[C@@]5(C)[C@H](CC[C@@H]6[C@@H]5C[C@@H](O)[C@]5(C)[C@@H](C7=CC(=O)OC7)CC[C@]65O)C4)O[C@@H]3C)O[C@@H]2C)C[C@H](O)[C@@H]1O [Digoxin],growth yield,40 h,102.8 ± 0.16%
same,growth yield,72 h,103.2 ± 0.84%
COc1cc([S+](C)[O-])ccc1-c1nc2cccnc2[nH]1 (centres undefined) [Sulmazole],growth yield,40 h,99.4 ± 2.2%
same,growth yield,72 h,98 ± 1.7%
Nc1nc(CC(=O)Nc2ccc(CCNC[C@H](O)c3ccccc3)cc2)cs1 [Mirabegron],growth yield,40 h,100 ± 8.6%
same,growth yield,72 h,96.8 ± 6.6%
NC[C@@H]1O[C@H](O[C@H]2[C@@H](O)[C@H](O[C@@H]3[C@@H](O)[C@H](N)C[C@H](N)[C@H]3O[C@H]3O[C@H](CO)[C@@H](O)[C@H](O)[C@H]3N)O[C@@H]2CO)[C@H](N)[C@@H](O)[C@@H]1O [Paromomycin sulfate],growth yield,40 h,102.6 ± 0.32%
same,growth yield,72 h,96.59 ± 0.32%
COc1ccccc1OCC(O)CO (centres undefined) [Guaifenesin],growth yield,40 h,102 ± 6.3%
same,growth yield,72 h,97.1 ± 2.7%
CC(=O)[C@H]1CC[C@H]2[C@@H]3C=CC4=CC(=O)CC[C@@]4(C)[C@@H]3CC[C@]12C [Dydrogesterone],growth yield,40 h,78.3 ± 1.1%
same,growth yield,72 h,79.9 ± 2.1%
CN1[C@@H]2CC[C@H]1C[C@@H](OC(=O)c1c[nH]c3ccccc13)C2 [Tropisetron hydrochloride],growth yield,40 h,104 ± 10%
same,growth yield,72 h,104 ± 8.6%
N#Cc1cc(NC(=O)C(=O)O)c(Cl)c(NC(=O)C(=O)O)c1 [Lodoxamide],growth yield,40 h,106 ± 5.2%
same,growth yield,72 h,99.4 ± 3.8%
Cc1cccc(C)c1OCC(C)N (centres undefined) [Mexiletine hydrochloride],growth yield,40 h,102 ± 1.8%
same,growth yield,72 h,101.9 ± 0.84%
COc1ccc(/C=C/C(=O)Nc2ccccc2C(=O)O)cc1OC [Tranilast],growth yield,40 h,88.2 ± 1.1%
same,growth yield,72 h,97.7 ± 2.9%
CCOC(=O)C1=C(COCCN)NC(C)=C(C(=O)OC)C1c1ccccc1Cl (centres undefined) [Amlodipine],growth yield,40 h,105 ± 12%
same,growth yield,72 h,113 ± 11%
Oc1c(Cl)cc(Cl)c(Cl)c1Cc1c(O)c(Cl)cc(Cl)c1Cl [Hexachlorophene],growth yield,40 h,25.3 ± 2.1%
same,growth yield,72 h,98.9 ± 5.8%
Cc1c(N(C)C)c(=O)n(-c2ccccc2)n1C [Amidopyrine],growth yield,40 h,103 ± 2.7%
same,growth yield,72 h,102.6 ± 0.63%
CCN(CC)CCNC(=O)c1cc(Cl)c(N)cc1OC [Metoclopramide monohydrochloride],growth yield,40 h,102 ± 0.95%
same,growth yield,72 h,103 ± 2.9%
CC(C)(CO)C(O)C(=O)NCCCO (centres undefined) [Panthenol (D)],growth yield,40 h,100 ± 4.5%
same,growth yield,72 h,98.1 ± 3%
CN(C)C/C=C(/c1ccc(Br)cc1)c1cccnc1 [Zimelidine dihydrochloride monohydrate],growth yield,40 h,97.8 ± 1.9%
same,growth yield,72 h,101 ± 4.1%
CCOc1ccc2ccccc2c1C(=O)N[C@@H]1C(=O)N2[C@@H]1SC(C)(C)[C@@H]2C(=O)O [Nafcillin sodium salt monohydrate],growth yield,40 h,90.4 ± 2.1%
same,growth yield,72 h,91.6 ± 1.6%
Cn1cnc2c1c(=O)[nH]c(=O)n2C [Theobromine],growth yield,40 h,98 ± 3%
same,growth yield,72 h,94.08 ± 0.94%
O=C(N[C@H](CO)[C@H](O)c1ccc([N+](=O)[O-])cc1)C(Cl)Cl [Chloramphenicol],growth yield,40 h,103 ± 1.3%
same,growth yield,72 h,99.11 ± 0.1%
CCC[C@@H]1C[C@@H](C(=O)N[C@@H]([C@H]2O[C@H](SC)[C@H](O)[C@@H](O)[C@H]2O)[C@H](C)Cl)N(C)C1 [Clindamycin hydrochloride],growth yield,40 h,98.5 ± 4.5%
same,growth yield,72 h,100 ± 4.2%
C=C1/C(=C\C=C2/CCC[C@]3(C)[C@@H]([C@H](C)CCCC(C)C)CC[C@@H]23)C[C@@H](O)C[C@@H]1O [Alfacalcidol],growth yield,40 h,103 ± 1.4%
same,growth yield,72 h,103 ± 2.3%
Cc1ccc2c(c1)c1c3n2CCNC3CCC1 (centres undefined) [Pirlindole mesylate],growth yield,40 h,101 ± 1.1%
same,growth yield,72 h,104 ± 2.5%
CN(C)CCC=C1c2ccccc2COc2ccccc21 [Doxepin hydrochloride],growth yield,40 h,96.58 ± 0.95%
same,growth yield,72 h,96.7 ± 1.7%
CC(C)[N+](C)(CCOC(=O)C1c2ccccc2Oc2ccccc21)C(C)C [Propantheline bromide],growth yield,40 h,99.9 ± 1.1%
same,growth yield,72 h,100 ± 0.63%
Nc1ccccc1S(N)(=O)=O [2-Aminobenzenesulfonamide],growth yield,40 h,93.7 ± 1.6%
same,growth yield,72 h,94.39 ± 0.63%
COc1ccccc1Oc1c(NS(=O)(=O)c2ccc(C(C)(C)C)cc2)nc(-c2ncccn2)nc1OCCO [Bosentan],growth yield,40 h,91.7 ± 5.9%
same,growth yield,72 h,89.7 ± 9.5%
NS(=O)(=O)c1cc2c(cc1Cl)NC(C(Cl)Cl)NS2(=O)=O (centres undefined) [Trichlormethiazide],growth yield,40 h,95.14 ± 0.79%
same,growth yield,72 h,94.1 ± 1.1%
CN[C@@H]1[C@H](O)[C@H](NC)[C@H]2O[C@@]3(O)C(=O)C[C@@H](C)O[C@H]3O[C@@H]2[C@H]1O [Spectinomycin dihydrochloride],growth yield,40 h,103 ± 1.8%
same,growth yield,72 h,100.8 ± 0.52%
N[C@@H](C(=O)N[C@@H]1C(=O)N2C(C(=O)O)=C(Cl)CC[C@H]12)c1ccccc1 [Loracarbef],growth yield,40 h,97.21 ± 0.95%
same,growth yield,72 h,98.5 ± 1.6%
Cc1onc(-c2ccccc2Cl)c1C(=O)N[C@@H]1C(=O)N2[C@@H]1SC(C)(C)[C@@H]2C(=O)O [Cloxacillin sodium salt],growth yield,40 h,101 ± 1.4%
same,growth yield,72 h,105 ± 2.8%
C#Cc1cccc(Nc2ncnc3cc(OCCOC)c(OCCOC)cc23)c1 [Erlotinib],growth yield,40 h,108%
same,growth yield,72 h,105%
CC(C)Nc1cccnc1N1CCN(C(=O)c2cc3cc(NS(C)(=O)=O)ccc3[nH]2)CC1 [Delavirdine],growth yield,40 h,100.4 ± 0.95%
same,growth yield,72 h,98.06 ± 0.94%
CN[C@@H]1[C@@H](O[C@H]2O[C@H](CO)[C@@H](N)[C@H](O)[C@H]2O)OC2C[C@@H](N)[C@@H](O[C@H]3[C@H](O)[C@@H](O)[C@H](N)C[C@@H]3N)OC2[C@@H]1O (some centres undefined) [Apramycin],growth yield,40 h,103 ± 2.2%
same,growth yield,72 h,100.2 ± 0.52%
Cc1c(-c2ccccc2)oc2c(C(=O)OCCN3CCCCC3)cccc2c1=O [Flavoxate hydrochloride],growth yield,40 h,103.7 ± 0.79%
same,growth yield,72 h,107 ± 1.1%
C[C@H]1c2cccc(O)c2C(=O)C2=C(O)[C@]3(O)C(=O)C(C(N)=O)=C(O)[C@@H](N(C)C)[C@@H]3[C@@H](O)[C@@H]21 [Doxycycline hydrochloride],growth yield,40 h,93.2 ± 1.8%
same,growth yield,72 h,92.7 ± 2.7%
Clc1ccc(C(Cn2ccnc2)OCc2ccsc2Cl)c(Cl)c1 (centres undefined) [Tioconazole],growth yield,40 h,2.22 ± 1.6%
same,growth yield,72 h,1.89 ± 0.84%
CCCC1C(=O)N2C(N(C)C)=Nc3ccc(C)cc3N2C1=O (centres undefined) [Azapropazone],growth yield,40 h,91.5 ± 4.8%
same,growth yield,72 h,87.6 ± 4.5%
c1cnc(N2CCN(Cc3ccc4c(c3)OCO4)CC2)nc1 [Piribedil hydrochloride],growth yield,40 h,109 ± 8.3%
same,growth yield,72 h,102 ± 4%
"C[C@](N)(Cc1ccc(O)c(O)c1)C(=O)O [Methyldopa (L,-)]",growth yield,40 h,101 ± 1.1%
same,growth yield,72 h,101 ± 1.5%
CCOC(=O)O[C@]1(C(=O)OCCl)CC[C@H]2[C@@H]3CCC4=CC(=O)C=C[C@]4(C)[C@H]3[C@@H](O)C[C@@]21C [Loteprednol etabonate],growth yield,40 h,97.7 ± 3.6%
same,growth yield,72 h,97.4 ± 3.5%
Cc1ccc(NC(=O)c2ccc(CN3CCN(C)CC3)cc2)cc1Nc1nccc(-c2cccnc2)n1 [Imatinib],growth yield,40 h,117 ± 7%
same,growth yield,72 h,109 ± 7.5%
O=C(O)c1cn(C2CC2)c2cc(N3CCNCC3)c(F)cc2c1=O [Ciprofloxacin hydrochloride monohydrate],growth yield,40 h,94.19 ± 0.48%
same,growth yield,72 h,92.4 ± 0.32%
CCOc1nc2cccc(C(=O)OCc3oc(=O)oc3C)c2n1Cc1ccc(-c2ccccc2-c2noc(=O)[nH]2)cc1 [Azilsartan kamedoxomil],growth yield,40 h,101 ± 3.5%
same,growth yield,72 h,99.7 ± 3.7%
C#CCN[C@@H]1CCc2ccccc21 [Rasagiline],growth yield,40 h,90.06 ± 0.48%
same,growth yield,72 h,91.03 ± 0.42%
COc1ccc(-c2cc(=S)ss2)cc1 [Anethole-trithione],growth yield,40 h,76.4 ± 9.1%
same,growth yield,72 h,77.5 ± 7.2%
COc1cc(C(=O)NCc2ccc(OCCN(C)C)cc2)cc(OC)c1OC [Trimethobenzamide hydrochloride],growth yield,40 h,103 ± 2.4%
same,growth yield,72 h,97.75 ± 0.21%
CCCN1CCCC[C@H]1C(=O)Nc1c(C)cccc1C [Ropivacaine hydrochloride],growth yield,40 h,107 ± 3.6%
same,growth yield,72 h,106 ± 1.9%
C1CCC(C(CC2CCCCN2)C2CCCCC2)CC1 (centres undefined) [Perhexiline maleate],growth yield,40 h,86.9 ± 7.5%
same,growth yield,72 h,104 ± 6.6%
CC(C)NCC(O)COc1ccc(CCOCC2CC2)cc1 (centres undefined) [Betaxolol hydrochloride],growth yield,40 h,95 ± 1.9%
same,growth yield,72 h,98.8 ± 3.1%
CC(=O)[C@@]1(O)CC[C@H]2[C@@H]3C[C@H](C)C4=CC(=O)C=C[C@]4(C)[C@@]3(F)[C@@H](O)C[C@@]21C [Fluorometholone],growth yield,40 h,88.3 ± 4.1%
same,growth yield,72 h,87.3 ± 4.8%
CCc1nc(N)nc(N)c1-c1ccc(Cl)cc1 [Pyrimethamine],growth yield,40 h,104.2 ± 0.95%
same,growth yield,72 h,105 ± 2.6%
C#C[C@]1(OC(C)=O)CC[C@H]2[C@@H]3CCC4=CC(=NO)CC[C@@H]4[C@H]3CC[C@@]21CC (mixture of isomers) [Norgestimate],growth yield,40 h,117 ± 3.3%
same,growth yield,72 h,112 ± 3.9%
CC(=O)O[C@]1(C(C)=O)CC[C@H]2[C@@H]3C=C(Cl)C4=CC(=O)[C@@H]5C[C@@H]5[C@]4(C)[C@H]3CC[C@@]21C [Cyproterone acetate],growth yield,40 h,105.8 ± 0.64%
same,growth yield,72 h,101 ± 2.4%
